This is an account of results in the supplement of paper PMC4967469.

By IC50 is meant the dose at which the fit gives 50% viability; fits outside the tested doses are given as limits. For AUC the same curve is integrated over the 256-fold range of doses and scaled to a fraction; values near 1 show little effect. The top dose, if marked as inferred, was derived from the fitted curves, not read from the paper. For part of these data: Drugs with an entry number were screened twice under separate entries, and the two screens often disagree.

Compound in one assay: COc1cc(-c2nn([C@H]3CC[C@H](N4CCN(C(C)=O)CC4)CC3)c3ncnc(N)c23)ccc1NC(=O)c1cc2ccccc2n1C [A-770041]
The assay can be described thus: Viability of human cancer cell lines after 72 h of drug (GDSC screen). The note with it: top dose 5.12 µM; top dose inferred. On the procedure:
(§1)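 Human cancer cell lines in 384-well plates, medium with 10% serum, drug for 72 h over a 256-fold dose range (nine 2-fold or five 4-fold steps up to the top dose). Adherent lines were fixed and stained with the nucleic acid dye Syto60, suspension lines read with resazurin; signal relative to control wells, capped at 0 and 100%. One two-parameter sigmoid per drug and line, fitted in a mixed model over all curves with the slope shared within a line.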
By IC50 is commonly meant the concentration at which inhibition is half-maximal. Take HC-1 (hairy cell leukaemia, suspension): the AUC came out at 0.782 and the 50% inhibitory concentration (IC50) turned out to be 2.05 µM.

Compound in a further assay: COc1cc(N2CCN(C)CC2)ccc1Nc1ncc2c(n1)N(C)c1ccccc1C(=O)N2C [XMD8-85]
The description is as above. The note with it: top dose 8 µM; top dose inferred. On the procedure: as §1
As to “CPC-N (small cell lung carcinoma, suspension)”, the AUC was 0.913 and the half-inhibitory concentration (IC50) was over 8 µM.

In the case of CTB-1 (B-cell lymphoma, suspension), the AUC amounted to 0.848 and the 50% inhibitory concentration (IC50) is over 8 µM.

Regarding “CTV-1 (acute myeloid leukaemia, suspension)”, the AUC turned out to be 0.959 and the concentration for half-maximal inhibition (IC50) was over 8 µM.

For the cell line D-283MED (medulloblastoma, adherent), the AUC came to 0.847 and the IC50 was determined as 5.13 µM.

D-502MG (glioma, adherent): the AUC is 0.873 and the half-maximal inhibitory concentration (IC50) is over 8 µM.

Consider DB (B-cell lymphoma, suspension), for which the AUC was 0.941 and the IC50 is over 8 µM.

As to DEL (lymphoid neoplasm, suspension), the AUC was determined as 0.93 and the IC50 is over 8 µM.

On to DJM-1 (skin, adherent), for which the AUC was 0.908 and the IC50 is over 8 µM.

Turning to “DMS-79 (small cell lung carcinoma, suspension)”, the AUC worked out at 0.959 and the IC50 is over 8 µM.

Take DSH1 (bladder, adherent): the AUC came out at 0.929 and the IC50 was over 8 µM.

For the cell line DU-4475 (breast, suspension), the AUC amounted to 0.904 and the IC50 was determined as 7.16 µM.

As for EB2 (Burkitt lymphoma, suspension), the AUC was 0.79 and the IC50 came to 3.21 µM.

Turning to EB-3 (Burkitt lymphoma, suspension), the AUC came to 0.869 and the IC50 was over 8 µM.

EJM (lymphoid neoplasm, semi-adherent): the AUC stood at 0.979 and the IC50 was over 8 µM.

Turning to “EM-2 (chronic myeloid leukaemia, suspension)”, the AUC was found to be 0.929 and the half-inhibitory concentration (IC50) was over 8 µM.

As for EW-3 (Ewing sarcoma, adherent), the AUC turned out to be 0.956 and the IC50 was over 8 µM.

Regarding EW-13 (Ewing sarcoma, suspension), the AUC is 0.982 and the IC50 was over 8 µM.

As to EW-18 (Ewing sarcoma, suspension), the AUC came out at 0.985 and the concentration for half-maximal inhibition (IC50) was over 8 µM.

On to GCIY (stomach, adherent), for which the AUC amounted to 0.957 and the IC50 is over 8 µM.

On to “GDM-1 (acute myeloid leukaemia, suspension)”, for which the AUC amounted to 0.645 and the concentration for half-maximal inhibition (IC50) was 1.23 µM.

As to “HAL-01 (lymphoblastic leukaemia, suspension)”, the AUC stood at 0.736 and the concentration for half-maximal inhibition (IC50) came to 2.14 µM.

On to HC-1 (hairy cell leukaemia, suspension), for which the AUC came out at 0.883 and the 50% inhibitory concentration (IC50) stood at 7.98 µM.

Compound in a further assay: Cc1cc(N2CCOCC2)cc2[nH]c(-c3c(NC[C@@H](O)c4cccc(Cl)c4)cc[nH]c3=O)nc12 [BMS-536924]
Described as above. The note with it: top dose 4 µM; screen: GDSC drug entry 1091; top dose inferred. How it is done: as §1
Take “CPC-N (small cell lung carcinoma, suspension)”: the AUC came to 0.816 and the half-inhibitory concentration (IC50) was determined as 2.48 µM.

Regarding CTB-1 (B-cell lymphoma, suspension), the AUC was found to be 0.938 and the half-inhibitory concentration (IC50) was over 4 µM.

As to “CTV-1 (acute myeloid leukaemia, suspension)”, the AUC was found to be 0.866 and the concentration for half-maximal inhibition (IC50) amounted to 2.45 µM.

With D-283MED (medulloblastoma, adherent), the AUC was found to be 0.979 and the concentration for half-maximal inhibition (IC50) is over 4 µM.

Regarding D-502MG (glioma, adherent), the AUC worked out at 0.867 and the half-inhibitory concentration (IC50) was over 4 µM.

For DB (B-cell lymphoma, suspension), the AUC turned out to be 0.976 and the IC50 was over 4 µM.

Turning to DEL (lymphoid neoplasm, suspension), the AUC stood at 0.918 and the IC50 is 3.81 µM.

For the cell line “DMS-79 (small cell lung carcinoma, suspension)”, the AUC was determined as 0.983 and the IC50 is over 4 µM.

As to DSH1 (bladder, adherent), the AUC was 0.974 and the IC50 was over 4 µM.

For DU-4475 (breast, suspension), the AUC amounted to 0.964 and the IC50 was over 4 µM.

Turning to EB2 (Burkitt lymphoma, suspension), the AUC was determined as 0.988 and the concentration for half-maximal inhibition (IC50) is over 4 µM.

Consider EB-3 (Burkitt lymphoma, suspension), for which the AUC is 0.972 and the concentration for half-maximal inhibition (IC50) is over 4 µM.

Turning to EJM (lymphoid neoplasm, semi-adherent), the AUC was determined as 0.916 and the half-inhibitory concentration (IC50) is over 4 µM.

As to “EM-2 (chronic myeloid leukaemia, suspension)”, the AUC amounted to 0.908 and the IC50 is over 4 µM.

EW-3 (Ewing sarcoma, adherent): the AUC worked out at 0.732 and the 50% inhibitory concentration (IC50) came out at 1.28 µM.

As for EW-13 (Ewing sarcoma, suspension), the AUC was 0.965 and the half-maximal inhibitory concentration (IC50) was over 4 µM.

Take EW-18 (Ewing sarcoma, suspension): the AUC is 0.805 and the half-maximal inhibitory concentration (IC50) was 2.18 µM.

In the case of “GDM-1 (acute myeloid leukaemia, suspension)”, the AUC is 0.655 and the concentration for half-maximal inhibition (IC50) stood at 0.66 µM.

“HAL-01 (lymphoblastic leukaemia, suspension)”: the AUC stood at 0.829 and the IC50 came out at 2.1 µM.

As for HC-1 (hairy cell leukaemia, suspension), the AUC is 0.919 and the IC50 was over 4 µM.

Still in this assay, the particulars now being: top dose 5.12 µM; screen: GDSC drug entry 62.
With “CPC-N (small cell lung carcinoma, suspension)”, the AUC was determined as 0.771 and the IC50 was found to be 2.15 µM.

On to CTB-1 (B-cell lymphoma, suspension), for which the AUC was found to be 0.898 and the IC50 was over 5.12 µM.

For the cell line “CTV-1 (acute myeloid leukaemia, suspension)”, the AUC was 0.831 and the concentration for half-maximal inhibition (IC50) was 2.41 µM.

As for D-283MED (medulloblastoma, adherent), the AUC was 0.931 and the IC50 is over 5.12 µM.

For D-502MG (glioma, adherent), the AUC stood at 0.928 and the IC50 is over 5.12 µM.

As for DB (B-cell lymphoma, suspension), the AUC was found to be 0.983 and the IC50 was over 5.12 µM.

Take DEL (lymphoid neoplasm, suspension): the AUC came to 0.849.

For the cell line DJM-1 (skin, adherent), the AUC was found to be 0.909 and the concentration for half-maximal inhibition (IC50) is over 5.12 µM.

With “DMS-79 (small cell lung carcinoma, suspension)”, the AUC stood at 0.98 and the half-inhibitory concentration (IC50) was over 5.12 µM.

Consider DSH1 (bladder, adherent), for which the AUC is 0.962 and the IC50 is over 5.12 µM.

In the case of DU-4475 (breast, suspension), the AUC came to 0.884 and the concentration for half-maximal inhibition (IC50) was 3.78 µM.

For EB2 (Burkitt lymphoma, suspension), the AUC stood at 0.972 and the IC50 was over 5.12 µM.

With EB-3 (Burkitt lymphoma, suspension), the AUC turned out to be 0.961 and the IC50 was over 5.12 µM.

As to EJM (lymphoid neoplasm, semi-adherent), the AUC stood at 0.931 and the IC50 was over 5.12 µM.

On to “EM-2 (chronic myeloid leukaemia, suspension)”, for which the AUC was determined as 0.926 and the IC50 is over 5.12 µM.

As for EW-3 (Ewing sarcoma, adherent), the AUC was determined as 0.757 and the IC50 came out at 2 µM.

As to EW-13 (Ewing sarcoma, suspension), the AUC stood at 0.952 and the concentration for half-maximal inhibition (IC50) was over 5.12 µM.

Turning to EW-18 (Ewing sarcoma, suspension), the AUC is 0.955 and the IC50 was over 5.12 µM.

On to GCIY (stomach, adherent), for which the AUC worked out at 0.538 and the concentration for half-maximal inhibition (IC50) is 0.412 µM.

For “GDM-1 (acute myeloid leukaemia, suspension)”, the AUC is 0.384 and the half-maximal inhibitory concentration (IC50) was 0.156 µM.

For “HAL-01 (lymphoblastic leukaemia, suspension)”, the AUC stood at 0.707 and the IC50 is 1.13 µM.

Take HC-1 (hairy cell leukaemia, suspension): the AUC was 0.86 and the IC50 was 4.01 µM.
